Reference: patent publication US7517874B2 (priority 2007, dated 2009)

Target: human CB2 receptor (hCB2) (Homo sapiens, UniProt P34972)
Experiment: cell-based
Type: cell-based
Details: for +/− HCB2: agonist or inverse agonist at hCB2
[1] = groups >100 nM-10 μM and >10 μM, cAMP, CHO-K1 hCB2, read-out: EC50 HCB2

Chain of human CB2 receptor (hCB2) (P34972 whole entry): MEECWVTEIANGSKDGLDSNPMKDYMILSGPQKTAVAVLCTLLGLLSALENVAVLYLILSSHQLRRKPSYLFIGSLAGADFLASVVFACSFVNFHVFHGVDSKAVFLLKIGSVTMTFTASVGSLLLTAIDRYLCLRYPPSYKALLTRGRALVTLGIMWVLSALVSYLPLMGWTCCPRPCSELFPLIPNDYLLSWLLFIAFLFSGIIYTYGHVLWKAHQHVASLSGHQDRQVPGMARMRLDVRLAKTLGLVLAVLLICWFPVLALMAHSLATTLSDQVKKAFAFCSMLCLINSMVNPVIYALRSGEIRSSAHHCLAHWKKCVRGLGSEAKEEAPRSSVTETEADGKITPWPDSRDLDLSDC

Structure (SMILES) | +/− HCB2 | other results
CNC(=O)[C@@H](NC(=O)c1nc(-c2cc(F)ccc2F)n2c1CN(C)CCC2)C(C)(C)C [Compound 359, (S)-3-(2,5-difluorophenyl)-N-(3,3-dimethyl-1-(methylamino)-1-oxobutan-2-yl)-8-methyl-6,7,8,9-tetrahydro-5H-imidazo[1,5-a][1,4]diazepine-1-carboxamide] | + | 
CNC(=O)[C@@H](NC(=O)c1nc(-c2csc3ccccc23)n2c1CN(C)CCC2)C(C)(C)C [Compound 354, (S)-3-(benzo[b]thiophen-3-yl)-N-(3,3-dimethyl-1-(methylamino)-1-oxobutan-2-yl)-8-methyl-6,7,8,9-tetrahydro-5H-imidazo[1,5-a][1,4]diazepine-1-carboxamide] | + | 
CN1CCn2c(-c3ccccc3)nc(C(=O)NC(C)(C)CO)c2C1 [Compound 230, N-(1-hydroxy-2-methylpropan-2-yl)-7-methyl-3-phenyl-5,6,7,8-tetrahydroimidazo[1,5-a]pyrazine-1-carboxamide] |  | EC50 [1]: > 10000 nM
CNC(=O)[C@@H](NC(=O)c1nc(CCCN2CCCCC2)n2c1CN(C)CCC2)C(C)(C)C [Compound 501, (S)-N-(3,3-dimethyl-1-(methylamino)-1-oxobutan-2-yl)-8-methyl-3-(3-(piperidin-1-yl)propyl)-6,7,8,9-tetrahydro-5H-imidazo[1,5-a][1,4]diazepine-1-carboxamide] | + | 
CNC(=O)[C@@H](NC(=O)c1nc(Cc2ccccc2)n2c1CNCC2)C(C)(C)C [Compound 13, (S)-3-benzyl-N-(3,3-dimethyl-1-(methylamino)-1-oxobutan-2-yl)-5,6,7,8-tetrahydroimidazo[1,5-a]pyrazine-1-carboxamide] | + | 
CCCc1nc(C(=O)N[C@H](C(=O)NC)C(C)(C)C)c2n1CCN(C)C2 [Compound 304, (S)-N-(3,3-dimethyl-1-(methylamino)-1-oxobutan-2-yl)-7-methyl-3-propyl-5,6,7,8-tetrahydroimidazo[1,5-a]pyrazine-1-carboxamide] | + | 
CNC(=O)[C@H](C)NC(=O)c1nc(-c2ccccc2)n2c1CNCC2 [Compound 28, (S)-N-(1-(methylamino)-1-oxopropan-2-yl)-3-phenyl-5,6,7,8-tetrahydroimidazo[1,5-a]pyrazine-1-carboxamide] |  | EC50 [1]: > 10000 nM
CNC(=O)[C@@H](NC(=O)c1nc(-c2cc(Cl)c(F)cc2F)n2c1CN(C)CCC2)C1CCCCC1 [Compound 542, (S)-3-(5-chloro-2,4-difluorophenyl)-N-(1-cyclohexyl-2-(methylamino)-2-oxoethyl)-8-mehtyl-6,7,8,9-tetrahydro-5H-imidazo[1,5-a][1,4]diazepine-1-carboxamide] | + | 
CN1CCn2c(-c3ccc(Cl)cc3F)nc(C(=O)N3CCC(C(=O)N4CCOCC4)CC3)c2C1 [Compound 226, (3-(4-chloro-2-fluorophenyl)-7-methyl-5,6,7,8-tetrahydroimidazo[1,5-a]pyrazin-1-yl)(4-(morpholine-4-carbonyl)piperidin-1-yl)methanone] |  | EC50: > 10000 nM
CNC(=O)[C@@H](NC(=O)c1nc(-c2ccccc2C(N)=O)n2c1CN(C)CCC2)C(C)(C)C [Compound 431, (S)-3-(2-carbamoylphenyl)-N-(3,3-dimethyl-1-(methylamino)-1-oxobutan-2-yl)-8-methyl-6,7,8,9-tetrahydro-5H-imidazo[1,5-a][1,4]diazepine-1-carboxamide] | + | 
CC(C)(C)OC(=O)N1CCn2c(-c3ccccc3)nc(C(=O)NC3CCCCC3)c2C1 [Compound 36, tert-butyl 1-(cyclohexylcarbamoyl)-3-phenyl-5,6-dihydroimidazo[1,5-a]pyrazine-7(8H)-carboxylate] | − | 
CCCCCCc1nc(C(=O)N[C@H](C(=O)NC)C(C)(C)C)c2n1CCCN(C)C2 [Compound 491, (S)-N-(3,3-dimethyl-1-(methylamino)-1-oxobutan-2-yl)-3-hexyl-8-methyl-6,7,8,9-tetrahydro-5H-imidazo[1,5-a][1,4]diazepine-1-carboxamide] | + | 
CNC(=O)[C@@H](NC(=O)c1nc(-c2ccc(C#N)cc2)n2c1CN(C)CC2)C(C)(C)C [Compound 254, (S)-3-(4-cyanophenyl)-N-(3,3-dimethyl-1-(methylamino)-1-oxobutan-2-yl)-7-methyl-5,6,7,8-tetrahydroimidazo[1,5-a]pyrazine-1-carboxamide] | + | 
CNC(=O)[C@@H](NC(=O)c1nc(C2=CCC(C)CC2)n2c1CN(C)CCC2)C(C)(C)C (stereo partly drawn) [Compound 449, N-((S)-3,3-dimethyl-1-(methylamino)-1-oxobutan-2-yl)-8-methyl-3-(4-methylcyclohex-1-enyl)-6,7,8,9-tetrahydro-5H-imidazo[1,5-a][1,4]diazepine-1-carboxamide] | + | 
CNC(=O)[C@@H](NC(=O)c1nc(-c2ccc(F)c(OC)c2)n2c1CN(C)CCC2)C(C)(C)C [Compound 393, (S)-N-(3,3-dimethyl-1-(methylamino)-1-oxobutan-2-yl)-3-(4-fluoro-3-methoxyphenyl)-8-methyl-6,7,8,9-tetrahydro-5H-imidazo[1,5-a][1,4]diazepine-1-carboxamide] | + | 
CNC(=O)[C@@H](NC(=O)c1nc(-c2ccco2)n2c1CNCC2)C(C)(C)C [Compound 15, (S)-N-(3,3-dimethyl-1-(methylamino)-1-oxobutan-2-yl)-3-(furan-2-yl)-5,6,7,8-tetrahydroimidazo[1,5-a]pyrazine-1-carboxamide] | + | 
CC(C)C[C@H](NC(=O)c1nc(-c2ccc(F)cc2)n2c1CN(C)CCC2)C(N)=O [Compound 565, (S)-N-(1-amino-4-methyl-1-oxopentan-2-yl)-3-(4-fluorophenyl)-8-methyl-6,7,8,9-tetrahydro-5H-imidazo[1,5-a][1,4]diazepine-1-carboxamide] | + | 
CN1CCCn2c(-c3ccccc3)nc(C(=O)N[C@H](C(=O)NCCF)C(C)(C)C)c2C1 [Compound 476, (S)-N-(1-(2-fluoroethylamino)-3,3-dimethyl-1-oxobutan-2-yl)-8-methyl-3-phenyl-6,7,8,9-tetrahydro-5H-imidazo[1,5-a][1,4]diazepine-1-carboxamide] | + | 
CNC(=O)[C@@H](NC(=O)c1nc(-c2cccnc2)n2c1CNCC2)C(C)(C)C [Compound 14, (S)-N-(3,3-dimethyl-1-(methylamino)-1-oxobutan-2-yl)-3-(pyridin-3-yl)-5,6,7,8-tetrahydroimidazo[1,5-a]pyrazine-1-carboxamide] | + | 
CNC(=O)[C@@H](NC(=O)c1nc(-c2ccc(Cl)cc2F)n2c1CN(C)CC2)C(C)(C)C [Compound 241, (S)-3-(4-chloro-2-fluorophenyl)-N-(3,3-dimethyl-1-(methylamino)-1-oxobutan-2-yl)-7-methyl-5,6,7,8-tetrahydroimidazo[1,5-a]pyrazine-1-carboxamide] | + | 
CC(C)(C)CNC(=O)c1nc(-c2ccccc2)n2c1CN(S(=O)(=O)c1ccccc1)CC2 [Compound 104, N-neopentyl-3-phenyl-7-(phenylsulfonyl)-5,6,7,8-tetrahydroimidazo[1,5-a]pyrazine-1-carboxamide] | − | 
Cc1ccc(-c2nc(C(=O)N[C@H](c3nc(C)no3)C(C)(C)C)c3n2CCCN(C)C3)c(F)c1 [Compound 522, (S)-N-(2,2-dimethyl-1-(3-methyl-1,2,4-oxadiazol-5-yl)propyl)-3-(2-fluoro-4-methylphenyl)-8-methyl-6,7,8,9-tetrahydro-5H-imidazo[1,5-a][1,4]diazepine-1-carboxamide] | + | 
CNC(=O)[C@@H](NC(=O)c1nc(-c2cccc(C#N)c2)n2c1CN(C)CCC2)C(C)(C)C [Compound 328, (S)-3-(3-cyanophenyl)-N-(3,3-dimethyl-1-(methylamino)-1-oxobutan-2-yl)-8-methyl-6,7,8,9-tetrahydro-5H-imidazo[1,5-a][1,4]diazepine-1-carboxamide] | + | 
CNC(=O)[C@@H](NC(=O)c1nc(-c2ccoc2)n2c1CNCC2)C(C)(C)C [Compound 12, (S)-N-(3,3-dimethyl-1-(methylamino)-1-oxobutan-2-yl)-3-(furan-3-yl)-5,6,7,8-tetrahydroimidazo[1,5-a]pyrazine-1-carboxamide] | + | 
CNC(=O)[C@@H](NC(=O)c1nc(-c2ccc(C(F)(F)F)cc2F)n2c1CN(C)CCC2)C(C)(C)C [Compound 368, (S)-N-(3,3-dimethyl-1-(methylamino)-1-oxobutan-2-yl)-3-(2-fluoro-4-(trifluoromethyl)phenyl)-8-methyl-6,7,8,9-tetrahydro-5H-imidazo[1,5-a][1,4]diazepine-1-carboxamide] | + | 
CNC(=O)[C@@H](NC(=O)c1nc(-c2ccccc2)n2c1CN(c1ncccn1)CCC2)C(C)(C)C [Compound 483, (S)-N-(3,3-dimethyl-1-(methylamino)-1-oxobutan-2-yl)-3-phenyl-8-(pyrimidin-2-yl)-6,7,8,9-tetrahydro-5H-imidazo[1,5-a][1,4]diazepine-1-carboxamide] |  | EC50: > 10000 nM
Cc1cnc(CNC(=O)c2nc(-c3ccccc3)n3c2CN(C)CC3)cn1 [Compound 237, 7-methyl-N-((5-methylpyrazin-2-yl)methyl)-3-phenyl-5,6,7,8-tetrahydroimidazo[1,5-a]pyrazine-1-carboxamide] |  | EC50: > 10000 nM
CNC(=O)c1ccc(-c2nc(C(=O)N[C@H](C(=O)NC)C(C)(C)C)c3n2CCCN(C)C3)cc1 [Compound 408] |  | EC50: > 10000 nM
Cc1nnc(C)n1C1CCN(C(=O)c2nc(-c3ccc(Cl)cc3F)n3c2CN(C)CC3)CC1 [Compound 223, (3-(4-chloro-2-fluorophenyl)-7-methyl-5,6,7,8-tetrahydroimidazo[1,5-a]pyrazin-1-yl)(4-(3,5-dimethyl-4H-1,2,4-triazol-4-yl)piperidin-1-yl)methanone] |  | EC50: > 10000 nM
CN1CCn2c(-c3ccc(Cl)cc3F)nc(C(=O)N3CCN(C(=O)c4ccccc4)CC3)c2C1 [Compound 210, (4-benzoylpiperazin-1-yl)(3-(4-chloro-2-fluorophenyl)-7-methyl-5,6,7,8-tetrahydroimidazo[1,5-a]pyrazin-1-yl)methanone] |  | EC50 [1]: > 10000 nM

Read-outs that look alike come from different tables or passages of the source.
